The other results are listed elsewhere or left out.

The test system of the assay is PfHDP1 homeodomain (GST-tagged). The experiment in a line: gcPBM binding intensity (ln(normalized median fluorescence intensity)); higher = stronger DNA binding. The procedure, abridged: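 After 1 h on an Agilent 4 × 180k array of primer-extended double-stranded 36-bp intergenic genomic probes and negative controls, bound GST-tagged P. falciparum DNA-binding domains were detected with Alexa488 anti-GST antibody and scanned at 488 nm. The domains had been expressed in E. coli, and binding took place in 1× PBS with 1% milk, 0.2 mg/ml BSA, 0.5% salmon testes DNA and 0.03% Triton X-100. Binding intensity is the highest Masliner-normalised natural-log median intensity across replicate spots of either probe orientation.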
Turning to TATTACACATATTATGTGCACATATATAATCAATAT, the “gcPBM binding intensity (ln)” value is 10.9.
In the case of “TATATATATATAATATGTACATATATTAAGCATTTT [XGTACX_site4470]” it was 8.65; in that of “AAAAAAAAAAATTAAAGTACTAATTAAAATTATATG [XGTACX_site5289]”, 6.22.
“TATATATATAAATACACACACACACCCCAAAGCGTA [CACACA_site4211]”: the “gcPBM binding intensity (ln)” value was 7.32.
“TATTTTTTAAAAAATTATAAATAAAATTATATTACG [CACACA_negctrl_site324]”: the “gcPBM binding intensity (ln)” value was 6.18.
Consider “AAAAAAAACACGCGCACACACACACCCACAGACACA [CACACA_site5253]”, for which the “gcPBM binding intensity (ln)” value stood at 6.89.
For “ACAGTATATTAAAAAATACACACGTATTATATCTAC [CACACA_site2640]”, the “gcPBM binding intensity (ln)” value turned out to be 6.26.
Turning to “TATAATATATTCACTCGTACATATTTAATAATATCT [XGTACX_site6209]”, the “gcPBM binding intensity (ln)” value is 6.47.
Consider “AAATTCAATTTGCGCTGTACATGAAGATATAAATTT [XGTACX_site4844]”, for which the “gcPBM binding intensity (ln)” value stood at 6.87.
In the case of “ATACCTGTTGTGTTACGTACATAATTTTAATGTTTG [XGTACX_site8181]” it was 7.08; in that of “CACACGCACAAAAACACACACAAAGGTGTTCTTATA [CACACA_site6724]”, 7.76; in that of “AGATATTTCATTTAAAGTACATTCTTTATCACATAA [XGTACX_site6731]”, 6.08.
With “TTATTTTTTTTTTTTCGTACTTATTTATCTTGGTAT [XGTACX_site78]” the figure was 6.28; with “AACAATATTATTGTTTGTACTCACATATATAATATA [XGTACX_site8063]”, 6.46; with “AAAAAAACATGAAACACACACAAATATATATATATA [CACACA_site1884]”, 9.09.
With “TTCGTATATTATTAATGTACATTATAAAATCAATAT [XGTACX_site5751]” the figure was 6.7; with “TGTTTTATTATTTATAGTACATAAAAAAATATTGTA [XGTACX_site8963]”, 6.16.
As to “ATATATATGTGAAAATCACACATTGCTTATCTGTAA [CACACA_site6044]”, the “gcPBM binding intensity (ln)” value amounted to 6.3.
With “AAGGCATACAATACCTGTACGCAACCTTAAAAAGAA [XGTACX_site6070]” the figure was 6.32; with “AAAAAAAAAAAAAAAAAAAAAAAAAAAATTCTATAT [GTGCAC_negctrl_site468]”, 7.19; with “TATATATATATATATGGTACAGTTTATGCCTTTTAA [XGTACX_site6695]”, 9.41.
With ATTTTCATGATAAAGGTGCAATTATTTTTATAAGAA the figure was 9.4; with “TTATTTATAATATATACACACTAACATTATTTATCC [CACACA_site4835]”, 6.67; with “TATAATATATACAAATGTACATATATATATATATAT [XGTACX_site4559]”, 9.21.
As to “GGGGTATCTTCCTATGCACACTTGTTATGTACTAAC [CACACA_site4610]”, the “gcPBM binding intensity (ln)” value is 9.25.
In the case of “TTTTTGTTTTTGTTTTGTACTCATACATACTATCAT [XGTACX_site4210]” it was 7.03; in that of “ATATATACGTATGAATGTATATTTGTTTGATTTTTT [CACACA_negctrl_site835]”, 6.04; in that of “CTTTTATTAAAATTCACACACATAAATTTTTATAAA [CACACA_site1993]”, 6.44.
In the case of “TTATGTCATAAATGCACACATATATAAATACAGATA [CACACA_site4959]”, the “gcPBM binding intensity (ln)” value was 10.3.
For the sequence “TCTTCAAACAAAAAAAATAATAAAAAGTACAAAATG [CACACA_negctrl_site363]”, the “gcPBM binding intensity (ln)” value was found to be 6.78.
With “ATATGTGATTTCTAATGTACACAAAAAAAAAAAAAA [XGTACX_site7701]” the figure was 6.53; with “TTTTTATTAATAGATATAAATATATAATATGAATGT [TGCATGCA_negctrl_site309]”, 6.4.
With “GAAAATTTAATATAGAACGAAAGCATACACATATAT [GTGCAC_negctrl_site424]” the figure was 6.71.
In the case of “AAATATTATAGCACCACACACTTATTTTATATATAT [CACACA_site5281]” it was 7.11.
Take “CCATATAATATGAACAGTACACACAAAATAAATTCG [XGTACX_site7590]”: the “gcPBM binding intensity (ln)” value stood at 6.7.
In the case of “ATATATATATATATTTGTACAGATTTATATTATAAT [XGTACX_site7612]” it was 9.1.
Consider “ACCGAAGGAATTTATAGTACACATCATAAATAAATT [XGTACX_site4100]”, for which the “gcPBM binding intensity (ln)” value was 6.32.
With “AATATAAAAAAAAAATGTACATATTATATATATATA [XGTACX_site5113]” the figure was 8.75.
In the case of “AAAAATTTTTTTTCATTTGTTTTTATTCCGTAAAAA [CACACA_negctrl_site1217]” it was 6.27; in that of “AGTTTGATTTTTTCTTATAATATATTATTATATATT [CACACA_negctrl_site376]”, 7.07; in that of “TATAATATAAAATAATGTACTTTGAAATATGACATA [XGTACX_site3579]”, 6.1.
“TTTACAGATACATTCACACATAAATTCATGTATAAT [CACACA_site5387]”: the “gcPBM binding intensity (ln)” value stood at 6.41.
As to “ATTGTTATGAGAACAGCACACAAGCTACATCATATA [CACACA_site8192]”, the “gcPBM binding intensity (ln)” value is 6.57.
With “ATATATAATTTTTGTTGTACATTATAAAAATAATTA [XGTACX_site2738]”, the “gcPBM binding intensity (ln)” value came out at 6.3.
With “GCGGCGGTATCATGCACACGTATATATTGTAACAGT [CACACA_site4958]”, the “gcPBM binding intensity (ln)” value is 8.63.
Take “TCATTGAAAAAAATGTGTACTCATCAAGTATATATT [XGTACX_site6430]”: the “gcPBM binding intensity (ln)” value turned out to be 6.54.
In the case of “TTTTAAAAAAATAAAAAATAATAAAAAAAATAAAAA [CACACA_negctrl_site1693]” it was 6.33; in that of “AATGATATTATCTCTTCACACACTCACATACAGACA [CACACA_site8335]”, 6.67.
On to “AATATGATTATTACCCGTACATATTACCTTATGGTA [XGTACX_site1714]”, for which the “gcPBM binding intensity (ln)” value turned out to be 6.34.
With “TATATAAGGATATATACACACATATAGGTATTTATA [CACACA_site7092]” the figure was 6.5; with “TCAGGAATATAAAGTGCACACATAATTTGGGGGCAA [CACACA_site7974]”, 9.05; with “GTGCATATGTAGATATGTACATATTTATTTATTATT [XGTACX_site7343]”, 6.8.
With “AAAAATAAATAAAGTGGTACATAAAAAAGAGAAATT [XGTACX_site874]” the figure was 7.1; with “ATATATATATATATATGTACATATATATACATATAT [XGTACX_site6987]”, 9.22; with “ATTCACGTGTCTTAAAAAAAAAAAAAAGAAAAAAAG [CACACA_negctrl_site573]”, 6.13.
“TCCTTAAAATATATCACACATTTCGTTCATTTATAA [CACACA_site4346]”: the “gcPBM binding intensity (ln)” value amounted to 6.65.
With “AGTATACGAATAAAATGTACATACAAATTGTTGTAA [XGTACX_site36]” the figure was 6.54.
Consider “TATATATATATATCCACACACATACAGATATTAAGA [CACACA_site4214]”, for which the “gcPBM binding intensity (ln)” value was 9.09.
With “ATAATATATATACAAACACACAATTGTGTCCACATT [CACACA_site1747]” the figure was 7.03; with “TGTACATATATATAATATATATATCATCATATTTTC [CACACA_negctrl_site1750]”, 6.61.
Regarding “ATTATATAATTGTCTTCACACACACCGATATATATA [CACACA_site8883]”, the “gcPBM binding intensity (ln)” value stood at 6.99.
For “ATAAGAAAAAAGAACTGTACTAATAAAATATAAAAA [XGTACX_site3715]”, the “gcPBM binding intensity (ln)” value is 6.36.
“GGATTTATTATATATACACACATACATATATATATA [CACACA_site8669]”: the “gcPBM binding intensity (ln)” value turned out to be 8.73.
In the case of “AAAGGATACAGACACACACACACATATATATATATA [CACACA_site906]” it was 9.12; in that of “ATACATAAAATTAAAACACACATTTGATTAAATACG [CACACA_site7088]”, 6.6; in that of ATCAAGCGCAATGTGGTGCGTAAATTTTGTATTATA, 7.83.
In the case of “GTCTAAGCTTATAGGCGTACACATGAATATGGATGT [XGTACX_site2439]” it was 6.58.
In the case of “GTGTTAAATGTTTACACACAAACTTGCAATAATTAT [CACACA_site3825]” it was 8.28; in that of “AAAAATTATAACTAAAAAAATCACACAAAATATTTT [TGCATGCA_negctrl_site28]”, 6.26.
For the sequence “TTGCATTTATTATACACACACAAAAAAATATATATA [CACACA_site238]”, the “gcPBM binding intensity (ln)” value worked out at 7.12.
“TATGTATTTAAGTTACCTGAACGTTCAGGTAAAATT [CACACA_negctrl_site1393]”: the “gcPBM binding intensity (ln)” value came out at 6.38.
Turning to “GTAATTTTAAAGAAAAGTACACATTTATTAATTATT [XGTACX_site4468]”, the “gcPBM binding intensity (ln)” value turned out to be 5.91.
As for “AAATCAAACTTTGGTGTGCACAAATATATACATATA [GTGCAC_site9986]”, the “gcPBM binding intensity (ln)” value amounted to 11.
“AAAAATGAGTGACACACACACATATAAATATAAATA [CACACA_site7115]”: the “gcPBM binding intensity (ln)” value was found to be 6.22.
Consider “TTTTTTTTACATTCTGCACACAATTTATTTTTTTTT [CACACA_site36]”, for which the “gcPBM binding intensity (ln)” value came to 9.09.
“TTTATTCTCAAACACACACACATATATATATATATA [CACACA_site2895]”: the “gcPBM binding intensity (ln)” value is 9.36.
Consider “TTTTATATATATATCACACACACACCCATGTTTTAA [CACACA_site79]”, for which the “gcPBM binding intensity (ln)” value was 7.01.
Consider “TAATTAATAATAATATGTACATATTAATATATTATT [XGTACX_site6900]”, for which the “gcPBM binding intensity (ln)” value came to 6.31.
With “TGATAAAGTAAATATACATGCGATTAGTTATATATA [TGCATGCA_site720]”, the “gcPBM binding intensity (ln)” value was determined as 6.36.
In the case of “TTGATAATTATATAATGTACTCATTATAATATGATG [XGTACX_site7813]” it was 6.26; in that of “TATAAAAAAAAAAAAAGTACTAACTTAAAACAATTT [XGTACX_site7969]”, 5.92.
For “AGTTTGTCAATCAACACACACCTATTTATTATAGAT [CACACA_site7777]”, the “gcPBM binding intensity (ln)” value came to 6.16.
Turning to “TATTTATTCTCCAACACACACACATATATTTATATA [CACACA_site7376]”, the “gcPBM binding intensity (ln)” value stood at 6.84.
In the case of “TAAAAAAAAAGAAGGGGTACATGGATAATATATAAA [XGTACX_site8386]” it was 6.75.
Regarding “CATATATGGTTATATACATGCACCATTATATTATTA [TGCATGCA_site520]”, the “gcPBM binding intensity (ln)” value turned out to be 8.66.
In the case of “GCAGGCTAAAAAATTACACACGAAAAAAATGAATTT [CACACA_site3417]” it was 6.3.
In the case of “TATATAATATTTTTCACACACCATTTCCTTAAACAC [CACACA_site4862]” it was 6.8.
With “TGTATAACCTGTGTTACACACATTATGATTTATATA [CACACA_site525]” the figure was 6.48; with “TTATATGTTTTACAACGTACACAAAAAAAACTTATA [XGTACX_site4413]”, 6.43.
